PubChem BioAssay AID624418 (National Center for Advancing Translational Sciences (NCATS), 2012)
Screen size: about 410,000 compounds; about 530 (0.13%) were called active. The inconclusive results got no clear call from the source; some entries with a clear call stand among them for comparison. The call rests on the fitted dose curve; in most records, active means well fitted inhibition curve with a large enough effect; inconclusive means small, poorly fitted or top-dose-only effect, or another doubt; inactive means no such curve, though single readings can be large or run the other way. A potency beside an inconclusive call is a rough fit, not a confirmed value.

test: qHTS of GLP-1 Receptor Inverse Agonists: Cytotox Screen; details: HEK293 cAMP-luciferase reporter cells, luminescence, 24 h; series mostly up to 38.3 µM
Summary of the method: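 MLSMR compounds, 24 hr on cells at 37 deg C/5% CO2; luminescence after luciferase reagent (12 min RT). Inhibition counted as the undesired cytotoxic outcome.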
Potency means the concentration at half of the fitted maximal effect.

SMILES | Potency
N/C(CN1CCSCC1)=N\OCc1c(F)cccc1Cl | inconclusive: 28.2 µM [inhibitor, single point]
NC1=CC(=O)C(=O)c2ccccc21 | inconclusive: 10 µM [inhibitor, single point]
CN(CCC#N)C(=S)Nc1ccc(F)cc1 | inconclusive: 0.501 µM [inhibitor, full curve, poor fit]
COc1ccc(-c2csc3nc(-c4ccccc4F)oc(=O)c23)cc1OC | inconclusive: 28.2 µM [inhibitor, single point]
CCC(C)n1c(=S)[nH]c2c(sc3ccc([N+](=O)[O-])cc32)c1=O (centres undefined) | inconclusive: 2.24 µM [inhibitor, full curve, poor fit]
C=CCn1c(-c2ccccc2)c[nH]c1=S | inconclusive: 12.6 µM [inhibitor, single point]
CC(C)CC(=O)NC(=S)Nc1ccccc1N1CCCC1 | inconclusive: 31.6 µM [inhibitor, partial curve, poor fit]
Clc1ccc2[nH]cc(-c3nnnn3-c3ccccc3)c2c1 | inconclusive: 10 µM [inhibitor, partial curve]
COc1ccc(-n2c(NN)nc3sc4c(c3c2=O)CCCC4)cc1 | inconclusive: 28.2 µM [inhibitor, single point]
CCN(CC)C1CC(=O)N(c2cccc(Cl)c2)C1=O (centres undefined) | inactive
Cc1cccc(C)c1NC(=O)c1ccc(-c2ccc(Cl)cc2Cl)o1 | inactive
Cc1cc(OCCCCn2ccnc2)cc(C)c1Cl | inconclusive: 28.2 µM [inhibitor, single point]
CCOc1cc(/C=C2\SC(=S)N(NS(=O)(=O)c3ccc(C)cc3)C2=O)ccc1O | inconclusive: 28.2 µM [inhibitor, single point]
CC(C)CC(=O)/C=C/n1c(=S)oc2ccccc21 | inconclusive: 12.6 µM [inhibitor, single point]
Cc1ccc(NC(=O)C2CCCN(S(=O)(=O)c3c(C)n[nH]c3C)C2)cc1C (centres undefined) | inconclusive: 10 µM [inhibitor, partial curve, poor fit]
Cc1ccc(N=Nc2c(O)ccc3n[nH]nc23)cc1 | inconclusive: 12.6 µM [inhibitor, single point]
CCC(=O)N1N=C(c2c(-c3ccccc3)c3cc(Cl)ccc3[nH]c2=O)CC1c1ccco1 (centres undefined) | inconclusive: 28.2 µM [inhibitor, single point]
CC1(C)[C@H]2CC[C@]1(C)[C@@H](OC(=O)C[N+]1(C)CCOCC1)C2 | inconclusive: 28.2 µM [inhibitor, single point]
CCC(O)(C(=O)Nc1ccccc1C(F)(F)F)c1ccccc1OC (centres undefined) | inactive
CCCN(CC(=O)Nc1ccccc1C)C(=O)CCl | inconclusive: 28.2 µM [inhibitor, single point]
CCN(CC)c1ccc(NC(=O)CN2C(=O)c3cccnc3Sc3ccccc32)c(C)c1 | inactive
C=CCN(CC=C)S(=O)(=O)c1ccc(C(=O)Nc2nnc(COC)o2)cc1 | inactive
CCOC(=O)c1cc(-c2ccc(OC)cc2)n(CCC(=O)NC2CCN(Cc3ccccc3)CC2)c1C | inconclusive: 28.2 µM [inhibitor, single point]

SMILES | Potency
CC(C1CC2CCC1C2)n1c(-c2cccs2)n[nH]c1=S (centres undefined) | inactive
CC(C)c1ccc(NC(=O)N2CCc3nc(NCc4cccc(Oc5ccccc5)c4)ncc3C2)cc1 | inconclusive: 14.1 µM [inhibitor, partial curve, poor fit]
Cc1nnc2c3ccccc3c(-c3cccs3)nn12 | inactive
CCCCCCCn1c(NC(=O)CC)nc2ccccc21 | inconclusive: 10 µM [inhibitor, single point]
Cc1cccc(NC(=S)NC(=O)CCc2ccccc2)c1 | inconclusive: 31.6 µM [inhibitor, partial curve, poor fit]
CCOc1cccc(C(=O)Nc2ccc3oc(Cc4ccc(Cl)cc4)nc3c2)c1 | inactive
COc1cc2c(cc1OC)CN(C(=O)CC1CC3CCC1C3)CC2 (centres undefined) | inconclusive: 8.91 µM [inhibitor, partial curve, poor fit]
O=C(O)C1Cc2[nH]cnc2C(c2ccccc2O)N1 (centres undefined) | inactive
COc1cc(Nc2c3c(nc4ccccc24)CCC3)cc(OC)c1OC | inconclusive: 11.2 µM [inhibitor, partial curve, poor fit]
COc1ccc(-c2cc(C(F)(F)F)nc(SCCC(=O)NCc3ccco3)n2)cc1 | inconclusive: 31.6 µM [inhibitor, single point]
CCOC(=O)Nc1ccc2c(c1)N(C(=O)CCN(CC)CC)c1ccccc1S2=O (centres undefined) | inconclusive: 28.2 µM [inhibitor, single point]
O=C(NN1C(=O)/C(=C/c2cccs2)SC1=S)c1ccncc1 | inconclusive: 28.2 µM [inhibitor, single point]
CC1CCCC(NCC(O)COC(c2ccc(F)cc2)c2ccc(F)cc2)C1C (centres undefined) | inconclusive: 28.2 µM [inhibitor, single point]
O=[N+]([O-])c1cncc([N+](=O)[O-])c1Nc1ccccc1Cl | inconclusive: 10 µM [inhibitor, single point]
C/C(=N\NC(=O)c1ccccc1)c1ccc2c(c1)OCO2 | inactive
CCOc1ccc(CCNC(=O)C2=C(C)C(=O)OC23CCCCC3)cc1OCC | inconclusive: 3.16 µM [inhibitor, partial curve, poor fit]
Cc1cc(NC(=O)CN2CCOCC2)n(-c2ccccc2)n1 | inconclusive: 2.51 µM [inhibitor, partial curve, poor fit]
Cc1ccccc1N(CC(=O)NCCc1ccccc1)C(=O)c1csnn1 | inactive
CN(C)c1cc(NC(=O)CNC(C)(C)CC(C)(C)C)c2ccccc2n1 | inconclusive: 10 µM [inhibitor, single point]
COc1ccc(Cl)cc1S(=O)(=O)N1CCN(C(=O)c2cc(-c3ccc(Br)cc3)n[nH]2)CC1 | inactive
COc1cc([N+](=O)[O-])ccc1N | inconclusive: 28.2 µM [inhibitor, single point]
CC(C)NC(=S)N=Nc1c(O)[nH]c2ccc(C(C)C)cc12 | inconclusive: 12.6 µM [inhibitor, partial curve, poor fit]
N#Cc1ccccc1NC(=O)CSC1=Nc2ccccc2C2CC=NN12 (centres undefined) | inconclusive: 28.2 µM [inhibitor, single point]

SMILES | Potency
Cc1ccc(Nc2cc(C)nc3c(C)cccc23)cc1 | inconclusive: 12.6 µM [inhibitor, partial curve, poor fit]
COc1ccc(CNC(=O)CS(=O)(=O)c2cccc3nsnc23)cc1 | inactive
COc1cc(OC)c2c(-c3ccccc3)cc(=O)oc2c1C(CCN1CCOCC1)c1ccc2c(c1)OCO2 (centres undefined) | inactive
CC(=O)NC(=S)Nc1ccc(NC(=O)COc2ccc(Cl)cc2Cl)cc1 | inconclusive: 12.6 µM [inhibitor, partial curve, poor fit]
NC(=S)N/N=C1\CC(c2ccc3c(c2)OCCO3)Oc2ccc(F)cc21 (centres undefined) | inconclusive: 2.51 µM [inhibitor, full curve]
CC(C)(C)OC(=O)C[C@H]1C/C=C\C[C@@H](CC(=O)N[C@H](CO)Cc2ccccc2)C(=O)NC[C@H](c2ccccc2)OC1=O | inconclusive: 1.12 µM [inhibitor, full curve, poor fit]
CCCCC(=O)NC(c1ccc(N(C)C)cc1)c1ccc2cccnc2c1O (centres undefined) | inconclusive: 1.12 µM [inhibitor, full curve, poor fit]
O=C(CN1C(=O)NC(c2ccccc2)(c2ccccc2)C1=O)N1CCN(c2ccc(F)cc2)CC1 | inconclusive: 11.2 µM [inhibitor, partial curve, poor fit]
Fc1ccc(C2CC(c3ccco3)=Nc3ccccc3S2)cc1 (centres undefined) | inconclusive: 31.6 µM [inhibitor, single point]
COc1cccc(-c2csc(N3CCN(C(=O)Nc4ccccc4Cl)CC3)n2)c1 | inactive
Cc1ccc2nc(CN3CCN(S(=O)(=O)c4ccc(F)cc4)CC3)oc2c1 | inactive
CC1(C)C(/C=C/C=C/C=C/C=C2\N(CCCCS(=O)(=O)O)c3ccc4ccccc4c3C2(C)C)=[N+](CCCCS(=O)(=O)[O-])c2ccc3ccccc3c21 | inactive
CC(C)(C)OC(=O)CC(S(=O)(=O)c1ccccc1)S(=O)(=O)c1ccccc1 | inconclusive: 22.4 µM [inhibitor, single point]
COc1ccc(CCNC(=O)CCn2c(=O)c3ccccc3n(Cc3ccccc3C)c2=O)cc1OC | inactive
Nc1nc(-c2ccc3c(c2)CCCC3)cs1 | inactive
Nc1ccccc1S(=O)(=O)NC1=NCCCCC1 | inconclusive: 28.2 µM [inhibitor, single point]
O=C(Nc1cccc(-c2cnc3ccccc3n2)c1)c1ccco1 | inconclusive: 28.2 µM [inhibitor, single point]
CC(/C=C/C=C/c1ccccc1)=N/NC(=O)c1ccc2c(c1)OCCO2 | inactive
Cc1ccn2c(NC3CCCC3)c(-c3ccccn3)nc2c1 | inconclusive: 12.6 µM [inhibitor, single point]
CCN(CC)CCNC(=O)c1ccc2c(=O)n3nc(Nc4ccccc4)sc3nc2c1 | inactive
CCOc1cc(CNc2ccc3c(c2)OCCO3)cc(Br)c1OC | inconclusive: 0.631 µM [inhibitor, full curve, poor fit]
O=C1CC(=O)N(Cc2ccco2)C(=S)N1 | inactive
CC(C)OP(=O)(OC(C)C)C(NC(=O)c1ccccc1Br)C(N)=O (centres undefined) | inactive
